Results: PubChem BioAssay AID1346428 (National Center for Advancing Translational Sciences (NCATS), 2018)
Among all 48,000 compounds or so, about 1,200 (2.5%) were called active. Not shown: some 2% with an inconclusive outcome.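 The calls were made as follows: active = activation of at least 60% and not above a set upper limit (about 1 call in 100 departs from these limits); inconclusive = activation of 40% to 60%, or above that upper limit; inactive = activation under 40%.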 This is one part of the list.

These compounds were tested against Probable G-protein coupled receptor 32 (Homo sapiens) (UniProt O75388) (assay: qHTS for Agonists of Human Resolvin D1 Receptor DRV1). Settings: CHO-K1 GPR32 beta-arrestin PathHunter luminescence, 90 min; at 76.9 µM; stronger effect = higher value; zero percent set by DMSO-only wells.
Chain of UniProt O75388 (O75388 whole entry, looked up): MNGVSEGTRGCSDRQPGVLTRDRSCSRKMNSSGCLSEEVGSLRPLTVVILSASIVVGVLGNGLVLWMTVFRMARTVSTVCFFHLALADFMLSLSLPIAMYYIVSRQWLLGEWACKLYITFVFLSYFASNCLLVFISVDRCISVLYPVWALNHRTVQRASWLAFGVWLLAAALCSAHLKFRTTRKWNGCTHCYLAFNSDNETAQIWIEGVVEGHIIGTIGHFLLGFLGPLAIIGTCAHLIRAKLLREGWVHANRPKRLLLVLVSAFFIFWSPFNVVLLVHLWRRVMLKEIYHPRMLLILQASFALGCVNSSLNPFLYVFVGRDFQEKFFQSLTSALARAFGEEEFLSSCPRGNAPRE
Summary of the method: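 Luminescent readout of beta-Gal complementation quantifies ligand-induced beta-arrestin association with GPR32 in CHO-K1 cells; 90 min compound incubation at 37 °C, detection 1 h at room temperature.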
Also: 0% is about no effect.

activation, active:
CCCCN1CC(c2nc3ccccc3n2CCCCOc2cccc(C)c2C)CC1=O (stereo not given) 109%
Cc1cc(-n2c(C)nc3ccccc3c2=O)ccc1NC(=O)c1ccccc1[N+](=O)[O-] 94%

activation, inactive:
COc1cc(NC(=O)CCCOc2cc(=O)n(C)c3ccccc23)cc(OC)c1OC 2.79%
COc1ccc(OC)c(NC(=O)Cn2c(=O)cc(-c3ccccc3)c3c(C)nn(C)c32)c1 -9.49%
O=S(=O)(NCc1nc2cccnc2n1Cc1ccccc1Cl)c1ccc(F)c(Cl)c1 -19.6%
CC(=O)c1c(C)oc2c1cc(NS(=O)(=O)c1ccc(Cl)c(C)c1)c1ccccc12 37.5%
Cc1cccc(OCC(=O)Nc2nnc(S(=O)(=O)N3CCc4ccccc43)s2)c1 -0.0358%
O=C(Nc1ccc(Cl)cc1)C(NS(=O)(=O)c1cccs1)c1ccccc1 (stereo not given) 34.7%
Cc1ccc(-n2c(Cc3ccccc3)nnc2SCc2nc(-c3cccs3)no2)cc1C 6.73%
Cc1nc(-c2ccc(C)c(N3CCN(C(=O)Nc4cccc(Cl)c4C)CC3)c2)no1 18.6%
CCOC(=O)C1CCCN(Cc2cn3c(-c4cccc(Br)c4)nnc3s2)C1 (stereo not given) 6.42%
Cc1nc(-c2ccc(F)cc2)sc1CCNC(=O)C(=O)Nc1ccc2c(c1)OCCO2 32.7%
OCCN(CCO)c1ncnc2c1cnn2-c1ccc(F)cc1 8.99%
COC(=O)c1cc(-c2ccc(C)cc2)c2c(=O)n(C)c(=O)n(C)c2n1 -0.0924%
COc1ccccc1C(=O)Oc1ccc(C(c2c(C)[nH][nH]c2=O)c2c(C)[nH][nH]c2=O)cc1 -44.2%
COc1ccc2oc(=O)c(C(=O)N3CCN(c4ccc(C)cc4)CC3)cc2c1 16.3%
COc1ccc(CC(=O)Nc2ccc(-c3nc4ccccc4s3)c(C)c2)cc1OC 11.2%
COc1ccc(-c2cc(C(F)(F)F)nc(NCCc3ccccc3)n2)cc1OC -8.16%
Cc1csc2nc(COC(=O)c3ccccc3NC(=O)c3ccc(C(C)(C)C)cc3)cc(=O)n12 -8.07%
COc1cccc(CNC(=O)c2cc(S(=O)(=O)N3CCCCC3)c[nH]2)c1 6.73%
Cc1ccc(S(=O)(=O)NC(=O)NN2CC3CCCC3C2)cc1 (stereo not given) -28.7%
CSc1nn(Cc2ccc(C)cc2)c(N)c1S(=O)(=O)c1ccccc1 43.3%
COc1ccc(-c2cc(C(=O)Nc3c(C)n(C)n(-c4ccccc4)c3=O)no2)cc1OC -9.29%
O=C(CCCn1c(=O)c2cccn2c2ccccc21)NCCc1ccc(Cl)cc1 -15.4%
CCOC(=O)c1c(NC(=O)C2c3ccccc3Oc3ccccc32)sc(C)c1C -23.1%
Cc1c(CC(=O)NCc2ccc(F)cc2)c(=O)oc2cc(O)c(Cl)cc12 6.55%
COc1ccc(NC(=O)CC2NCCNC2=O)c(OC)c1 (stereo not given) -8.93%
CCOc1cccc2sc(N(Cc3cccnc3)C(=O)c3ccc(C#N)cc3)nc12 -29.6%
Cc1cc(C)n(-c2nc3ccccc3nc2N2CCN(c3cccc(C(F)(F)F)c3)CC2)n1 -3.46%
O=C(NCc1ccccc1Cl)c1ccc2oc(=O)n(Cc3ccccc3)c2c1 -4.48%
Cc1cccc(-n2nc(C)c(C(=O)Nc3cc(C)ccc3C)c2-n2cccc2)c1 -19.8%
Cc1ccc(-n2c(SCc3ccccc3)nc3c([nH]c4ccccc43)c2=O)cc1 15.8%
CCN(CC)CCOc1ccc(Cc2ccccc2)cc1 6.89%
Cc1ccc(SCc2nc(-c3ccc(C(=O)NCCc4ccc(Cl)cc4)cc3)oc2C)cc1 15.9%
Cc1nn2c(=O)cc(COC(=O)c3ccccc3NC(=O)COc3ccccc3C)nc2s1 -13%
O=C(NCc1ccccc1F)c1ccc(CSc2nc3cccnc3n2Cc2ccccc2)cc1 9.69%
COc1ccc(OC)c(CNc2nc3ccc(C)cc3n3nnnc23)c1 -16.6%
COC(=O)c1cc2sc(Cl)cc2n1CC(=O)Nc1cc(C)cc(C)c1 -16.6%
COc1ccc(OC)c(NC(=O)[C@H](CSCc2ccccc2)N2Cc3ccccc3C2=O)c1 -14.4%
CCOC(=O)c1cc(OC(=O)c2ccccc2Cl)n(-c2ccccc2)n1 -9.01%
Cc1ccc(CNC(=O)C(=O)NCC(c2ccco2)S(=O)(=O)c2ccccc2)cc1 (stereo not given) -1.22%
N#Cc1nc(-c2ccc(COc3ccccc3)o2)oc1N1CCCCC1 -14.7%
COC(=O)c1cc2occc2n1CC(=O)Nc1ccc(N(C)C)cc1 -19.8%
Cc1ccc(CNC(=O)Cn2c(=O)n(-c3ccc(C)cc3)c(=O)c3c2c2cc(C)ccc2n3C)cc1 -2.23%
N#CC1=C2SCN(C3CCCCC3)CN2C(=O)CC1c1ccc(Cl)cc1 (stereo not given) 34.7%
Cc1ccccc1NC(=O)Cn1c(=O)n(Cc2ccccc2)c(=O)c2c(C)c(C)sc21 -7.59%
Cn1c(=O)cc(SCC(=O)N2CCN(c3ccccc3F)CC2)c2ccccc21 -33.5%
CCC(Sc1nnc2c3ccccc3n(CC)c2n1)C(=O)Nc1nnc(C(C)C)s1 (stereo not given) -1.86%
COc1ccc(-c2cc3nc(C4CCN(C(=O)OC(C)(C)C)CC4)c(C(=O)Nc4cc(C)cc(C)c4)cn3n2)cc1 -0.188%
COc1ccc2c(CNCCc3cccs3)c(C(=O)O)n(Cc3ccc(F)cc3Cl)c2c1 -1.17%
CCOc1ccc(CN(CCc2ccc3c(c2)OCO3)Cc2cc(OC)c(OC)cc2OC)cc1 -24.4%
CCCN1CCN(CCCNC(=O)c2ccc3nc(Cc4ccccc4)oc3c2)CC1 -6.8%
CCOc1ccc(NC(=O)CC2C(=O)N(c3cccc(C)c3)C(=O)N2Cc2cccs2)cc1 (stereo not given) -23.1%
COc1ccc(C)cc1NC(=O)c1cc(S(=O)(=O)N2CCCCC2)c[nH]1 -13.6%
COc1cc(NC(=O)CCc2c(C)nn(-c3ccc(N4CCCCC4)nn3)c2C)cc(OC)c1OC -10.2%
Cc1cc(C)cc(NC(=O)CCCc2nc(-c3ccco3)no2)c1 -8.91%
CCC(C(=O)Nc1cc(F)ccc1F)n1nc(C)c2c(C)n(-c3ccc(C)cc3)nc2c1=O (stereo not given) -20.4%
O=c1c(O)c(-c2cc(O)c(O)c(O)c2)oc2cc(O)cc(O)c12 3.38%
COc1ccc(CCC(=O)NC2CC(=O)N(c3ccc(OC)cc3)C2)cc1 (stereo not given) -7.67%
Cc1cc(C)c2c(=O)cc(CSc3n[nH]c(C)n3)[nH]c2c1 7.2%
Cc1cccc(NC(=O)C(=O)NCCc2csc(-c3ccc(F)cc3)n2)c1C 15.7%
CCN(C(=O)c1cn(CC)c(=O)c2cc(OC)c(OC)cc12)c1ccccc1F -18%
CCc1ccccc1NC(=O)c1noc2c1CC(C(C)(C)C)CC2 (stereo not given) -10.3%
COc1cc(C(=O)Nc2ccccc2-c2nc(-c3ccc(C)cc3)no2)cc(OC)c1OC -14.1%
O=C(CSCc1ccc(F)cc1)N1CCc2c([nH]c3ccccc23)C1c1ccc(Cl)cc1 (stereo not given) -40.1%
Cc1cc(N2CCCCC2)nc2ccc(NC(=O)CCC(=O)N3CCN(c4ccccc4)CC3)cc12 -11.5%
CC1=C(C(=O)Nc2cc(Cl)ccc2C)C(c2cccs2)n2ncnc2N1 (stereo not given) 20.1%
Cc1cccc(N2CCN(C(=O)c3ccc(Nc4nc5ccccc5n5nnnc45)cc3)CC2)c1C -1.06%
CCOC(=O)c1ccc(NC(=O)C2=C(C)Nc3nc(CCCO)nn3C2c2ccc(OC)cc2)cc1 (stereo not given) -20.7%
COc1ccc(NC(=O)CN2C(=O)c3cccnc3Sc3ccccc32)cc1OC -16.1%
COc1ccc(CCNC(=O)C(C)n2c(=O)cc(-c3ccccc3)c3c(C)nn(C)c32)cc1OC (stereo not given) 0.716%
CCSc1nc(-c2ccccc2F)nc2c1Cc1c(CO)cnc(C)c1O2 20.5%
COc1cc(C2C(=O)N(C3CCCCC3)CC(=O)N2C2CCCCC2)ccc1OC(C)C (stereo not given) -14%
CCOc1ccc(N(CC)C(=O)c2cc3c(s2)-c2ccccc2OC3)cc1 8.4%
CC1CCN(c2nc3ccc(C(=O)N4CCN(c5ccccc5)CC4)cc3s2)CC1 6.23%
Cc1ccc(-c2nc3sccn3c2Nc2ccc(C)c(C)c2)cc1 10.4%
COc1cccc(N2CCN(C(=O)c3nn(C)c4c3CSc3ccc(C)cc3-4)CC2)c1 9.02%
CCC(=O)N1CCc2cc(CNC(=O)c3ccc(F)cc3)ccc21 -9.14%
Cc1cc(Cl)ccc1NC(=O)Cn1nnc2sc(-c3ccccc3)cc2c1=O -0.339%
COc1cc(NC(=O)N2CCC(CN3CCOCC3)CC2)cc(OC)c1OC 0.405%
CC(C)c1ccc(Nc2ncnc3onc(-c4ccc(F)cc4)c23)cc1 -7.08%
COCCNc1nc2c(c(=O)n(Cc3cccc(Br)c3)c(=O)n2C)n1C -6.23%
Cc1nc2nc(SCC(=O)NC3CCCCC3)nn2c(C)c1Cc1ccccc1Cl 0.962%
COC(=O)c1ccc2c(c1)N(Cc1ccc(Cl)cc1)C(=O)c1ccccc1S2 7.74%
CCCCn1nc(NC(=O)c2cccc(Cl)c2)c2cc3cccc(C)c3nc21 -13.8%
